Measured values taken from the supplement of paper PMC12217912.
This is one part of the list. Sequences were assembled here from the parent chain. Inactive controls read about 0.05.

B1: TEV protease; numbered along this chain (parent)
chain: MGESLFKGPRDYNPISSSICHLTNESDGHTTSLYGIGFGPFIITNKHLFRRNNGTLVVQSLHGVFKVKDTTTLQQHLVDGRDMIIIRMPKDFPPFPQKLKFREPQREERICLVTTNFQTKSMSSMVSDTSCTFPSGDGIFWKHWIQTKDGQCGSPLVSTRDGFIVGIHSASNFTNTNNYFTSVPKNFMELLTNQEAQQWVSGWRLNADSVLWGGHKVFMVKPEEPFQPVKEATQL

Variants of: B1
Experiment: raw area under fraction-flipped curve 0-4 h after induction (AUC4h, not background-subtracted), DNA-recorder readout of cleavage of the substrate (dimensionless); higher = more cleavage of the substrate by the protease variant
Conditions: temperature: 34 °C; time window: 0-4 h after rhamnose induction
Description: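 In vivo DNA recorder in E. coli TOP10(DE3) ΔrhaA at 34 °C. Each TEVp single-site mutant (parent TEVp 0) is paired with a single-site variant of the 7-mer TEVs (canonical ENLYFQ|S). The substrate sits between flexible linkers in a Bxb1-sfGFP-TEVs-SsrA fusion, so cleavage stabilises Bxb1 and speeds flipping of a recombination array, read by NGS. The value is the raw area under the fraction-flipped curve over 0-4 h after rhamnose induction (AUC4h), with ≥20 reads per time point. It is not background-subtracted; inactive controls average about 0.047.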
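Also: Bxb1 expression induced with 0.2% (w/v) L-rhamnose at OD600 near 0.5, cultures sampled hourly, flipped fraction per protease–substrate barcode pair counted by paired-end Illumina sequencing.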

| Variant | area with substrate ENLYFAS | area with substrate ENLYFES | area with substrate ENLYFFS | area with substrate ENLYFHS | area with substrate ENLYFIS | area with substrate ENLYFKS | area with substrate ENLYFLS | area with substrate ENLYFMS | area with substrate ENLYFPS | area with substrate ENLYFRS | area with substrate ENLYFTS | area with substrate ENLYFVS | area with substrate ENLYFWS | area with substrate ENLYFCS | area with substrate ENLYFGS | area with substrate ENLYFNS | area with substrate ENLYFSS | area with substrate ENLYFYS | area with substrate ENLYFDS |
| --- | --- | --- | --- | --- | --- | --- | --- | --- | --- | --- | --- | --- | --- | --- | --- | --- | --- | --- | --- |
| S171D | 0.0561 | 0.0543 | 0.0667 | 0.0493 | 0.0572 | 0.0683 | 0.0684 | 0.0648 | 0.0653 | 0.0452 | 0.0509 | 0.0645 | 0.0565 | – | – | – | – | – | – |
| S171P | 0.0503 | 0.0562 | 0.0566 | 0.05 | 0.056 | – | – | 0.0628 | 0.0624 | 0.0596 | 0.0559 | 0.075 | 0.0495 | 0.0371 | 0.0675 | 0.057 | 0.056 | 0.0764 | – |
| F173W | 0.0568 | – | 0.0906 | 0.0684 | 0.056 | 0.0686 | 0.0599 | 0.0733 | 0.0635 | 0.0596 | 0.0638 | 0.0589 | 0.0144 | 0.0627 | 0.0717 | – | – | 0.0526 | 0.0562 |
| T174H | 0.066 | 0.0788 | – | 0.0355 | 0.0619 | – | 0.0635 | – | 0.0548 | – | 0.0557 | 0.0642 | 0.0561 | – | 0.0542 | – | – | – | 0.053 |
| N178T | 0.0741 | 0.0621 | 0.0614 | 0.0557 | 0.0543 | 0.0732 | – | 0.0619 | 0.0682 | – | – | 0.0581 | 0.0504 | – | 0.0526 | 0.0604 | – | 0.0548 | – |
| N178V | 0.0524 | – | – | – | – | – | 0.0577 | – | 0.069 | 0.0576 | – | – | 0.0606 | – | – | – | 0.0199 | – | 0.0394 |
| Y179I | 0.0585 | 0.063 | 0.0722 | 0.0495 | 0.0528 | 0.0694 | – | – | – | – | 0.0444 | 0.0567 | 0.0536 | – | – | – | – | – | 0.059 |
| Y179V | 0.0685 | – | – | 0.0607 | 0.059 | 0.105 | – | 0.0426 | – | 0.0592 | – | – | 0.0408 | 0.0762 | 0.0613 | – | 0.0582 | 0.0509 | 0.0615 |
| Y179W | 0.0568 | – | 0.0615 | 0.0562 | 0.0387 | – | – | 0.0452 | – | – | 0.0578 | – | 0.0704 | – | – | 0.052 | 0.0468 | – | 0.0517 |
| F180D | 0.0523 | – | – | – | 0.0552 | 0.061 | – | 0.0406 | 0.0591 | – | – | – | – | 0.0598 | 0.0593 | 0.051 | 0.0444 | 0.0427 | – |
| T181R | 0.0639 | – | 0.0626 | 0.054 | 0.0467 | 0.0547 | 0.0557 | 0.043 | 0.052 | 0.0364 | 0.0525 | 0.0138 | – | – | 0.0537 | 0.0702 | 0.0406 | 0.0346 | 0.0622 |
| T181S | 0.0539 | 0.0623 | – | – | 0.0537 | 0.0469 | 0.063 | 0.0611 | – | 0.0641 | – | – | 0.0505 | – | – | – | – | – | 0.0639 |
| S182G | 0.0649 | – | 0.0366 | – | 0.0563 | – | – | 0.0649 | – | 0.0758 | – | – | 0.0583 | 0.0575 | 0.0632 | – | – | 0.0467 | – |
| S182L | 0.0451 | – | 0.0545 | – | 0.0458 | – | – | – | 0.0539 | – | 0.0535 | – | 0.0516 | 0.0561 | – | – | – | – | 0.0549 |
| S182Q | 0.0572 | 0.0579 | 0.0608 | 0.058 | 0.05 | 0.0532 | – | 0.0558 | 0.0583 | – | – | 0.0508 | 0.0441 | 0.0547 | – | – | – | 0.057 | – |
| S182T | 0.049 | – | – | – | 0.063 | 0.0604 | – | 0.0722 | 0.0694 | 0.0525 | – | – | 0.0554 | 0.055 | – | – | – | – | – |
| V183S | 0.0533 | 0.0729 | 0.0847 | 0.0596 | – | 0.0543 | – | 0.0561 | 0.05 | – | 0.0557 | – | 0.0596 | 0.048 | – | 0.0584 | 0.0753 | – | – |
| P184D | 0.0566 | 0.0473 | – | – | 0.0529 | 0.0547 | – | 0.0574 | 0.0514 | – | 0.0537 | 0.0423 | 0.0476 | 0.0695 | 0.0624 | 0.0537 | – | 0.0597 | – |
| K185W | 0.0543 | 0.0616 | 0.065 | 0.0552 | 0.0589 | 0.088 | 0.0649 | 0.0694 | 0.0599 | 0.0666 | 0.0736 | 0.046 | 0.0579 | 0.0671 | 0.0919 | 0.0553 | 0.0322 | 0.0539 | 0.057 |
| N186S | 0.0584 | 0.0742 | 0.0748 | 0.0616 | 0.0608 | 0.0691 | – | 0.0405 | 0.0549 | 0.0517 | – | – | – | 0.0616 | 0.0635 | 0.0692 | – | 0.0526 | – |
| F187L | 0.0603 | 0.0422 | – | 0.0538 | 0.0639 | 0.0697 | 0.044 | 0.0608 | 0.059 | 0.0633 | 0.0543 | – | 0.0523 | 0.0523 | 0.0553 | 0.0548 | – | – | – |
| F187W | 0.0388 | 0.0729 | 0.0668 | 0.042 | 0.0431 | 0.0515 | 0.0566 | 0.0604 | – | 0.0558 | 0.0675 | – | 0.0547 | 0.0539 | 0.0589 | 0.0605 | 0.0525 | 0.0555 | 0.0521 |
| M188I | 0.0312 | – | 0.0611 | 0.0485 | 0.0491 | – | – | 0.0344 | 0.0606 | 0.0562 | 0.0388 | – | 0.0493 | 0.0481 | – | – | – | 0.0259 | – |
| E189P | 0.0625 | 0.0628 | 0.0437 | 0.0844 | 0.038 | 0.0705 | – | 0.0534 | – | 0.105 | – | – | – | – | – | 0.0749 | 0.0593 | 0.0466 | 0.069 |
| E189R | 0.0622 | 0.0616 | 0.0631 | – | 0.0497 | 0.0548 | – | 0.0663 | 0.0562 | – | – | 0.0619 | 0.0374 | 0.0608 | – | 0.0592 | – | – | 0.056 |
| E189S | 0.0614 | – | – | 0.0681 | – | – | – | – | 0.048 | – | – | – | – | – | – | 0.0796 | – | 0.0584 | – |
| E189W | 0.0361 | 0.05 | 0.0601 | – | 0.0527 | 0.0608 | – | 0.0772 | 0.0555 | – | 0.0565 | – | – | 0.054 | – | 0.0593 | – | 0.0236 | 0.0626 |
| L190C | 0.0541 | 0.0595 | – | – | 0.053 | 0.0339 | – | 0.0739 | – | – | – | 0.0476 | – | 0.0589 | – | 0.0512 | 0.0687 | – | – |
| L190E | 0.06 | 0.0667 | 0.0713 | – | 0.0454 | 0.0552 | 0.0651 | 0.0671 | 0.0622 | – | 0.0561 | 0.05 | 0.0916 | 0.0822 | – | 0.0787 | 0.0496 | 0.0474 | 0.0533 |
